# Screen size: about 310,000 compounds; about 2,200 (0.71%) showed an effect of 50% or more. The effect is printed as a negative number. The list shows a part of the results.
# Molecular target: human ether-à-go-go-related gene (hERG) potassium channel (human, UniProt Q12809)
# Assay: primary screen, population patch clamp on CHO cells stably expressing hERG
# human ether-à-go-go-related gene (hERG) potassium channel, sequence (Q12809 whole entry, looked up): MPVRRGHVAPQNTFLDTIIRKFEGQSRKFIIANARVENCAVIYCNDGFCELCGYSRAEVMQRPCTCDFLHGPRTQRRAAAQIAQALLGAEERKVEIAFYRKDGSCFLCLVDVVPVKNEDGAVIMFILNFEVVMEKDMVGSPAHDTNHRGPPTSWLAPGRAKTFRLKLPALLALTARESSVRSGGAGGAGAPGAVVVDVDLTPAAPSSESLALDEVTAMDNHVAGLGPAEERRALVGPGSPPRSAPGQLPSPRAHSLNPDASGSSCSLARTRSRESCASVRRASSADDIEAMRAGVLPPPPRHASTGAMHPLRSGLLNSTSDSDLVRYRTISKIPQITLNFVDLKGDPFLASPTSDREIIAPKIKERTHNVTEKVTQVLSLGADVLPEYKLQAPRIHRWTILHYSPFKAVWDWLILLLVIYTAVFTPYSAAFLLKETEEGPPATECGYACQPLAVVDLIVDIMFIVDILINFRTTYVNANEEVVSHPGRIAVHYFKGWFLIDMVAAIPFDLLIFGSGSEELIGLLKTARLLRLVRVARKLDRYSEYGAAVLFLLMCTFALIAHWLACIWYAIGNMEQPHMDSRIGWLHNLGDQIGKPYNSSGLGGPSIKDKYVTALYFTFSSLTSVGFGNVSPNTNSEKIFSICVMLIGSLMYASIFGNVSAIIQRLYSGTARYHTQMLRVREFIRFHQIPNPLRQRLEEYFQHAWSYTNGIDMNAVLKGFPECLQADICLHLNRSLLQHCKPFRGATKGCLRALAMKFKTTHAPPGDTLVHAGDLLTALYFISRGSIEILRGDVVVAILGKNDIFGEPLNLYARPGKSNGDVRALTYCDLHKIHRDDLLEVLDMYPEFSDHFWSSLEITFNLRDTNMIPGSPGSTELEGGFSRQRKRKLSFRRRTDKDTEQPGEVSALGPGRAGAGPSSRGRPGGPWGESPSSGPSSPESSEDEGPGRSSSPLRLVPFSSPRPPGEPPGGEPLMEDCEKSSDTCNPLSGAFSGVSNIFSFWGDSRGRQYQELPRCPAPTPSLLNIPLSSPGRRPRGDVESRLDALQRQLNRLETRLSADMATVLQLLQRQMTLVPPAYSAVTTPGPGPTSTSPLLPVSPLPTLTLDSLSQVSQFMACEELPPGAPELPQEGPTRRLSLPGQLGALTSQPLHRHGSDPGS
row,Structure (SMILES),"hERG current change (%, negative = inhibition) at 1uM [%]"
1,N#CCCC(CCC#N)C1=NCCc2ccccc21,8.18
2,Cc1ccc2nc(CCc3nc4ccc(C)cc4[nH]3)[nH]c2c1.Cl,-3.04
3,C=C(C)COc1ccc(-c2ncnc(C(F)(F)F)c2-c2ccccc2)c(O)c1,14.6
4,COC(=O)c1ccc(CN2CCC(Oc3cccc(C(=O)N4CCOCC4)c3)CC2)cc1,3.05
5,COC(=O)c1cc2occc2n1CC(=O)Nc1cc(OC)cc(OC)c1,7.17
6,CCCCNc1nnc(Cc2ccc(Cl)cc2)c(=O)[nH]1,8.73
7,CC1(c2ccccn2)Nc2ccccc2-c2nc3ccccc3n21 (stereo not drawn),10.7
8,CCc1ccc(CN2CCC(C(=O)Nc3ccc(Oc4ccccc4)nc3)CC2)o1,-11.7
9,O=C(NCC(c1ccco1)N1CCc2ccccc21)c1ccccc1 (stereo not drawn),7.13
10,N#Cc1nc(-c2ccco2)oc1N1CCCC1,2.15
11,C=CCc1cc(OC)ccc1OCCON1C(=O)CCC1=O,6.24
12,COc1ccc(C(c2nnnn2CCc2ccccc2)N2CCN(C3CCCC3)CC2)cc1.Cl (stereo not drawn),-48.4
13,c1ccc2[nH]c(-c3ccc4c(c3)OCO4)nc2c1,6.03
14,CCOC(=O)c1c(-c2ccccc2)csc1NC(=O)C(C)NCc1ccco1.O=C(O)C(=O)O (stereo not drawn),-8.34
15,COc1cccc(NC(=O)Cc2c(O)c3ccccc3[nH]c2=O)c1,17.8
16,O=C(NCc1ccccc1)C1CCN(S(=O)(=O)c2ccc(Cl)cc2)CC1,10
17,Cc1ccc(CNC(=O)CCn2cc(-c3ccc(C)cc3)nc2-c2ccncc2)cc1,-10.5
18,O=C(COc1ccc(S(=O)(=O)N2CCCC2)cc1)N1CCCC1,11.9
19,CCOC(=O)c1c(C=O)c2sc(C)cc2n1C,6.56
20,Cn1cnnc1SCC(=O)Nc1ccc(F)cc1F,28.5
21,Cc1ccccc1NC(=O)Cc1nnc(NC(=O)Nc2ccccc2F)s1,15.2
22,Cc1cccc(-n2cc(CN3CCCN(C=O)CC3)c(-c3cccc(F)c3)n2)c1,13.6

row,Structure (SMILES),"hERG current change (%, negative = inhibition) at 1uM [%]"
1,CCc1ccc(-c2cc(C)no2)cc1S(=O)(=O)N1CCCN(Cc2ccc(F)cc2)C1,12.1
2,O=C(CN1c2cccc3cccc(c23)S1(=O)=O)N1CCOCC1,12.3
3,NC1=NC(=O)/C(=C/c2ccccc2OS(=O)(=O)c2ccccc2)S1,5.18
4,NC(=O)C1CC(=O)N(c2ccc(OCC(=O)Nc3ccc(Cl)cc3)cc2)C1 (stereo not drawn),17.7
5,CCc1ccccc1NC(=O)CN(C1CCCCC1)S(C)(=O)=O,11.4
6,CCOC(=O)C(O)(CCC(O)(C(=O)OCC)C(=O)OCC)C(=O)OCC,7.97
7,Cc1cccc(-n2ncc3c2CCCC3NC(=O)CCc2ccncc2)c1C (stereo not drawn),10.5
8,Cc1ccc(S(=O)(=O)N2CCCCC2C(=O)N2CCN(c3ccccc3F)CC2)cc1 (stereo not drawn),13.1
9,Cn1c(CCCNC(=O)c2ccccc2)nc2ccccc21,8.14
10,O=C(CSc1nncs1)NCc1ccc(F)cc1,30.2
11,CNC(=S)n1cnc(N)n1,10.6
12,Cc1ccc(Nc2nc(-c3ccc(O)cc3O)cs2)nc1,11.1
13,CCOC(=O)C(=CNc1ccc(O)c(C(=O)OC)c1)C(=O)OCC,11.9
14,C=CCN1/C(=C(\C#N)C2=NS(=O)(=O)c3ccccc32)N(C)c2ccccc21,-5.66
15,CC(=O)c1cccc(NC(=O)CCS(=O)(=O)c2cc3c(cc2C)NC(=O)CO3)c1,11.2
16,CCN(C(=O)CCN1C(=O)/C(=C/c2ccccc2)SC1=S)C1CCS(=O)(=O)C1 (stereo not drawn),9.74
17,Cc1cccc(C)c1NC(=O)CSc1nc2[nH]c(=O)cc(O)c2s1,4.15
18,Cc1cc(C)[n+]2[nH]c(N)c(N=Nc3ccccc3)c2n1.[Cl-],0.859
19,Cc1ccc(C(C(=O)NCc2ccco2)N(Cc2ccco2)C(=O)CNC(=O)c2ccco2)cc1 (stereo not drawn),6.16
20,OCCC1CN(C2CCSCC2)CCN1C1CCCC1 (stereo not drawn),2.45
21,CN1CCN(C(=S)NC(=O)c2ccccc2Cl)CC1,12.8
22,CSc1cccc(N2CC(C(=O)N(CC(C)C)c3c(N)n(Cc4ccccc4)c(=O)[nH]c3=O)CC2=O)c1 (stereo not drawn),-5.25

row,Structure (SMILES),"hERG current change (%, negative = inhibition) at 1uM [%]"
1,CC(C)(C)c1nc(NCC2CCCO2)c2nnn(Cc3ccccc3)c2n1 (stereo not drawn),13.9
2,CN(c1ccc(OCC(=O)OCC(=O)Nc2ccc(Br)cc2)cc1)S(=O)(=O)c1cccs1,13.8
3,CCC(=O)Nc1ccc2c(c1)N(C(C)=O)c1ccccc1CC2,12
4,C[C@H](NC(=O)C1CC(=O)N(c2ccc3c(c2)OCCO3)C1)C(=O)N1CCCCC1 (stereo partly drawn),14
5,COc1ccc(CCNC(=O)CN2C(=O)C(=O)N(C3CCCC3)C2=O)cc1OC,3.16
6,Cc1ccccc1N(CC(=O)NC(C)(C)C)C(=O)CCC(=O)Nc1nccs1,13
7,CCOC(=O)COc1c(-c2ccc(OC)cc2)oc2ccccc2c1=O,9.81
8,CCCSc1nsc(NC(=O)CC)n1,-1.88
9,Cc1cc(C)nc(NC2=NCC(=O)N2CCc2c[nH]c3ccccc23)n1,8.81
10,Cc1ccccc1OCC(=O)Nc1ccc([N+](=O)[O-])cc1,10.5
11,O=C(Cc1ccccc1F)NCC1(N2CCOCC2)CCCCC1,2.75
12,C#CCOCCOCCOCCNc1nc(N2CCN(C(=O)[C@H]([C@@H](C)CC)n3cc(CCC(=O)O)nn3)CC2)nc(N2CCN(C(=O)[C@H](C)n3cc(CCC[NH+]=C(N)N)nn3)CC2)n1.[Cl-],12.9
13,COc1ccc(NC(=O)CSc2nnc(-c3cc(C)[nH]n3)n2N)cc1OC,14.4
14,CCOc1ccc(C(=O)Nc2ccc(S(=O)(=O)NCC3CCCO3)cc2)cc1OCC (stereo not drawn),7.55
15,Cc1cc(NC(=O)CN2C(=O)NC(C)(CCc3ccccc3)C2=O)no1 (stereo not drawn),7.44
16,COc1cc2cc(CN(CCc3cccc(C)c3)C(=S)NCCCN(C)C)c(=O)[nH]c2cc1OC,7.6
17,O=C1OC(c2ccccc2)=C/C1=C\N1CCOCC1,7.49
18,CCOC(=O)c1c(NCc2ccccc2)n[nH]c1C,4.96
19,COc1cc2c(cc1OC)CN(C(=O)CC1CC3CCC1C3)CC2 (stereo not drawn),2.13
20,O=C(NC1CCCCC1)C(c1ccccc1F)N(C(=O)c1csnn1)C1CCCC1 (stereo not drawn),-0.516
21,CN(CCN1CCOCC1)Cc1nc(-c2ccc(Cl)cc2)no1,0.241
22,Cc1ccc(S(=O)(=O)N2CCCCC2)cc1NC(=O)CCc1nc2ccccc2c(=O)[nH]1,1.86

row,Structure (SMILES),"hERG current change (%, negative = inhibition) at 1uM [%]"
1,COc1ccccc1Sc1nc(-c2ccccn2)ncc1OC,16.6
2,COc1cccc(CN(C)C(=O)c2cc(S(=O)(=O)NC3CCCCC3)ccc2C)c1OC,7.19
3,COc1ccc(C(=O)Nc2ccc(C(=O)O)cc2NC(=O)c2ccc(OC)cc2)cc1,15.2
4,Cc1cc(=O)[nH]c(N/N=C/c2ccc(C)o2)n1,5.46
5,CC(C)N1CCc2c(sc(N)c2C#N)C1,1.48
6,Cc1cccc(-c2nc(CN3CCCC(C(=O)NC4CCC(C)CC4)C3)c(C)o2)c1 (stereo not drawn),-10.2
7,Cc1ccc2nc(NC(=O)CCn3c(=O)sc4ccccc43)sc2c1,16
8,CN(C)C(=O)C(Sc1ccc(S(=O)(=O)N2CCCC2)cn1)c1ccccc1 (stereo not drawn),5.86
9,CCCCOc1ccc(/C(O)=C(\C#N)c2nc3ccccc3[nH]2)cc1,0.173
10,O=C(NNC(=S)NCc1ccccc1)c1cccc([N+](=O)[O-])c1,10.3
11,O=C(Cn1cc([N+](=O)[O-])cn1)N1CCN(Cc2ccc3c(c2)OCO3)CC1,3.77
12,Cc1ccc2nc(-c3ccccn3)[nH]c2c1.Cl,13.1
13,N#Cc1c(-c2ccccc2)nc(SCc2cccc(Cl)c2)[nH]c1=O,3.79
14,COc1ccc(C(=O)Nc2ccc3nc(N4CCCCC4)cc(C)c3c2)c(OC)c1,14.6
15,CCN1CCN(c2ccc(NC(=O)c3cc4ccccc4cc3OC)cc2C)CC1,3.06
16,O=C(Nc1ncccc1Cl)c1ccccc1F,10.3
17,Clc1cccc(OCCN2CCOCC2)c1.O=C(O)C(=O)O,5.84
18,COc1cc(C(C2=C(O)CC(C)(C)CC2=O)C2C(=O)CC(C)(C)CC2=O)cc(OC)c1OC (stereo not drawn),25
19,COC(=O)C/C=C/[C@@H](C)[C@@H](/C=N/O[C@H](C)c1cn([C@@H]2COC[C@H]2O)nn1)NS(=O)(=O)c1ccc(C)cc1,7.67
20,O=C(COc1ccc(Br)cc1)Nc1nnc(C2CC2)s1,3.65
21,O=C1NN(c2ccccc2)C(=O)/C1=C/c1ccc(-c2cccc(C(=O)O)c2)o1,9.26

# Reference: PMC4336329 (PLoS ONE, 2015)
